Results on 13 compounds are retold here after the supplement of paper PMC4604168 (melanoma cell lines).

The list shows a part of the results. Repeats are few or missing, and single values can be far off.
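Also: cell number obtained by counting DAPI-stained nuclei in high-throughput microscope images with image analysis software, screen run in 1,536-well plates.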

In this experiment the test system is SkMel2. As to the kind of experiment: cell count relative to DMSO control; melanoma cells; higher = more viable cells. The following applies: library dose: low library concentration; 72 h.
As to `O=C(O)[C@@H]1[O][Sb](=[O])([O][Sb]2(=[O])[O][C@H]([C@H](O)CO)[C@H](O)[C@H](C(=O)O)[O]2)[O][C@H]([C@H](O)CO)[C@@H]1O` (stereo partly drawn) [stibogluconate] + OCc1c[nH]c2ccccc12 [Indole-3-carbinol] (first compound 2 µM, partner dose 0.8 µM), the cell count came to 102%.

Take `O=C(Nc1cc(C(F)(F)F)cc(C(F)(F)F)c1)c1cc(Cl)ccc1O` + Clc1ccc(Nc2nnc(Cc3ccncc3)c3ccccc23)cc1 [vatalanib] (first compound 0.016 µM, partner dose 2 µM): the cell count stood at 98%. For `O=C(Nc1cc(C(F)(F)F)cc(C(F)(F)F)c1)c1cc(Cl)ccc1O` + CN(NC(=O)CC(=O)NN(C)C(=S)c1ccccc1)C(=S)c1ccccc1 [STA4783] (first compound 0.016 µM, partner dose 0.006 µM) the value was 104%. `O=C(Nc1cc(C(F)(F)F)cc(C(F)(F)F)c1)c1cc(Cl)ccc1O` + COCC[n+]1c2c(n(Cc3cnccn3)c1C)C(=O)c1ccccc1C2=O [YM155] (first compound 0.016 µM, partner dose 0.0004 µM) showed a cell count of 94%.

The compound `O=C(Nc1cc(C(F)(F)F)cc(C(F)(F)F)c1)c1cc(Cl)ccc1O` + O=C(O)c1ccc2c(c1)nc(Nc1cccc(Cl)c1)c1ccncc12 [CX4945] (first compound 0.016 µM, partner dose 0.4 µM) yielded a cell count of 112%. Take `O=C(Nc1cc(C(F)(F)F)cc(C(F)(F)F)c1)c1cc(Cl)ccc1O` + CCCCCCCCCCCCCCCCCCOP(=O)([O-])OC1CC[N+](C)(C)CC1 [Perifosine] (first compound 0.016 µM, partner dose 0.4 µM): the cell count came out at 96.7%. Turning to `O=C(O)c1ccc2c(c1)nc(Nc1cccc(Cl)c1)c1ccncc12` + NC(=O)Nc1cc(-c2cccc(F)c2)sc1C(=O)N[C@H]1CCCNC1 [AZD7762] (first compound 0.4 µM, partner dose 0.02 µM), the cell count turned out to be 117%.

`O=C(Nc1cc(C(F)(F)F)cc(C(F)(F)F)c1)c1cc(Cl)ccc1O` + C#Cc1cccc(Nc2ncnc3cc(OCCOC)c(OCCOC)cc23)c1 [erlotinib] (first compound 0.016 µM, partner dose 0.8 µM) registered a cell count of 96%.

`O=C(O)[C@@H]1[O][Sb](=[O])([O][Sb]2(=[O])[O][C@H]([C@H](O)CO)[C@H](O)[C@H](C(=O)O)[O]2)[O][C@H]([C@H](O)CO)[C@@H]1O` (stereo partly drawn) [stibogluconate] + Nc1nc(F)nc2c1ncn2[C@@H]1O[C@H](CO)[C@@H](O)[C@@H]1O [fludarabine] (first compound 2 µM, partner dose 0.2 µM) gave a cell count of 10.5%. In turn, `O=C(O)[C@@H]1[O][Sb](=[O])([O][Sb]2(=[O])[O][C@H]([C@H](O)CO)[C@H](O)[C@H](C(=O)O)[O]2)[O][C@H]([C@H](O)CO)[C@@H]1O` (stereo partly drawn) [stibogluconate] + Cn1nnc2c(C(N)=O)ncn2c1=O [temozolomide] (first compound 2 µM, partner dose 2 µM) returned a cell count of 105%.

As to `O=C(O)[C@@H]1[O][Sb](=[O])([O][Sb]2(=[O])[O][C@H]([C@H](O)CO)[C@H](O)[C@H](C(=O)O)[O]2)[O][C@H]([C@H](O)CO)[C@@H]1O` (stereo partly drawn) [stibogluconate] + CC(C)(C)c1cnc(CSc2cnc(NC(=O)C3CCNCC3)s2)o1 [SNS-032] (first compound 2 µM, partner dose 0.01 µM), the cell count is 97.9%. On to `O=C(O)c1ccc2c(c1)nc(Nc1cccc(Cl)c1)c1ccncc12` + CO[C@@H]1[C@H](N(C)C(=O)c2ccccc2)C[C@H]2O[C@]1(C)n1c3ccccc3c3c4c(c5c6ccccc6n2c5c31)C(=O)NC4 [Midostaurin] (first compound 0.4 µM, partner dose 0.08 µM), for which the cell count came out at 71.6%. As for `O=C(O)[C@@H]1[O][Sb](=[O])([O][Sb]2(=[O])[O][C@H]([C@H](O)CO)[C@H](O)[C@H](C(=O)O)[O]2)[O][C@H]([C@H](O)CO)[C@@H]1O` (stereo partly drawn) [stibogluconate] + COCC[n+]1c2c(n(Cc3cnccn3)c1C)C(=O)c1ccccc1C2=O [YM155] (first compound 2 µM, partner dose 0.0004 µM), the cell count came to 89.1%.
